# Residue numbers refer to the chain shown, from its start. This is one part of the list.
# T1: RBFOX1 RRM RbFoxmut (Fox-RRM*) (Homo sapiens, UniProt Q9NWB1 109-208, R118D;E147R;N151S;E152T)
# T1 sequence: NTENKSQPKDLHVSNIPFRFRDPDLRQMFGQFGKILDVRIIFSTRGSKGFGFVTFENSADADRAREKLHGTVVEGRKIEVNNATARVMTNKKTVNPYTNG
# B1: GCGGGGU (DNA:RNA)
# RNA: GGGAGACCGGAAUUCAGAUUGUCCGCGGGGUUUAAAUCCCGUCGUAGCCACCA
# DNA 1: CAATCTGAATTCCGGTCTCCC
# DNA 2: TGGTGGCTACGACGGGATT
# B2: GUUGAUG (DNA:RNA)
# RNA: B1 RNA with C26U, G27U, G29A, G30U, U31G
# DNA 1: CAATCTGAATTCCGGTCTCCC
# DNA 2: TGGTGGCTACGACGGGATT
# B3: GCUUUCG (DNA:RNA)
# RNA: B1 RNA with G27U, G28U, G29U, G30C, U31G
# DNA 1: CAATCTGAATTCCGGTCTCCC
# DNA 2: TGGTGGCTACGACGGGATT
# B4: AUUUACU (DNA:RNA)
# RNA: B1 RNA with G25A, C26U, G27U, G28U, G29A, G30C
# DNA 1: CAATCTGAATTCCGGTCTCCC
# DNA 2: TGGTGGCTACGACGGGATT
# B5: CCAUCCU (DNA:RNA)
# RNA: B1 RNA with G25C, G27A, G28U, G29C, G30C
# DNA 1: CAATCTGAATTCCGGTCTCCC
# DNA 2: TGGTGGCTACGACGGGATT
# B6: AACUCAA (DNA:RNA)
# RNA: GGGAGACCGGAAUUCAGAUUGUCCAACUCAAUUAAAUCCCGUCGUAGCCACCA
# DNA 1: CAATCTGAATTCCGGTCTCCC
# DNA 2: TGGTGGCTACGACGGGATT
# B7: AAUGGGU (DNA:RNA)
# RNA: B1 RNA with G25A, C26A, G27U
# DNA 1: CAATCTGAATTCCGGTCTCCC
# DNA 2: TGGTGGCTACGACGGGATT
# B8: GUUACUU (DNA:RNA)
# RNA: B1 RNA with C26U, G27U, G28A, G29C, G30U
# DNA 1: CAATCTGAATTCCGGTCTCCC
# DNA 2: TGGTGGCTACGACGGGATT
# B9: AAAUUAG (DNA:RNA)
# RNA: B6 RNA with C27A, C29U, A31G
# DNA 1: CAATCTGAATTCCGGTCTCCC
# DNA 2: TGGTGGCTACGACGGGATT
# B10: AAACGAC (DNA:RNA)
# RNA: B6 RNA with C27A, U28C, C29G, A31C
# DNA 1: CAATCTGAATTCCGGTCTCCC
# DNA 2: TGGTGGCTACGACGGGATT
# B11: CAUUCUU (DNA:RNA)
# RNA: B6 RNA with A25C, C27U, A30U, A31U
# DNA 1: CAATCTGAATTCCGGTCTCCC
# DNA 2: TGGTGGCTACGACGGGATT
# B12: AGCAUGA (DNA:RNA)
# RNA: B6 RNA with A26G, U28A, C29U, A30G
# DNA 1: CAATCTGAATTCCGGTCTCCC
# DNA 2: TGGTGGCTACGACGGGATT
# B13: UUUAUUA (DNA:RNA)
# RNA: B6 RNA with A25U, A26U, C27U, U28A, C29U, A30U
# DNA 1: CAATCTGAATTCCGGTCTCCC
# DNA 2: TGGTGGCTACGACGGGATT
# B14: CGGCAGC (DNA:RNA)
# RNA: B1 RNA with G25C, C26G, G28C, G29A, U31C
# DNA 1: CAATCTGAATTCCGGTCTCCC
# DNA 2: TGGTGGCTACGACGGGATT
# B15: GUCAAAU (DNA:RNA)
# RNA: B6 RNA with A25G, A26U, U28A, C29A, A31U
# DNA 1: CAATCTGAATTCCGGTCTCCC
# DNA 2: TGGTGGCTACGACGGGATT
# B16: CAUCAGC (DNA:RNA)
# RNA: B6 RNA with A25C, C27U, U28C, C29A, A30G, A31C
# DNA 1: CAATCTGAATTCCGGTCTCCC
# DNA 2: TGGTGGCTACGACGGGATT
# B17: UAUACAU (DNA:RNA)
# RNA: B6 RNA with A25U, C27U, U28A, A31U
# DNA 1: CAATCTGAATTCCGGTCTCCC
# DNA 2: TGGTGGCTACGACGGGATT
# B18: CAAUCAC (DNA:RNA)
# RNA: B6 RNA with A25C, C27A, A31C
# DNA 1: CAATCTGAATTCCGGTCTCCC
# DNA 2: TGGTGGCTACGACGGGATT
# B19: UCAAACA (DNA:RNA)
# RNA: B6 RNA with A25U, A26C, C27A, U28A, C29A, A30C
# DNA 1: CAATCTGAATTCCGGTCTCCC
# DNA 2: TGGTGGCTACGACGGGATT
# B20: CUUGAGC (DNA:RNA)
# RNA: B1 RNA with G25C, C26U, G27U, G29A, U31C
# DNA 1: CAATCTGAATTCCGGTCTCCC
# DNA 2: TGGTGGCTACGACGGGATT
# B21: UCGUUCU (DNA:RNA)
# RNA: B1 RNA with G25U, G28U, G29U, G30C
# DNA 1: CAATCTGAATTCCGGTCTCCC
# DNA 2: TGGTGGCTACGACGGGATT
# B22: UAUCUAG (DNA:RNA)
# RNA: B6 RNA with A25U, C27U, U28C, C29U, A31G
# DNA 1: CAATCTGAATTCCGGTCTCCC
# DNA 2: TGGTGGCTACGACGGGATT
# B23: UGCCUUG (DNA:RNA)
# RNA: B6 RNA with A25U, A26G, U28C, C29U, A30U, A31G
# DNA 1: CAATCTGAATTCCGGTCTCCC
# DNA 2: TGGTGGCTACGACGGGATT
# B24: CCCUAAA (DNA:RNA)
# RNA: B6 RNA with A25C, A26C, C29A
# DNA 1: CAATCTGAATTCCGGTCTCCC
# DNA 2: TGGTGGCTACGACGGGATT
# B25: GAUAUGG (DNA:RNA)
# RNA: B1 RNA with C26A, G27U, G28A, G29U, U31G
# DNA 1: CAATCTGAATTCCGGTCTCCC
# DNA 2: TGGTGGCTACGACGGGATT
# B26: GGAUCCA (DNA:RNA)
# RNA: B6 RNA with A25G, A26G, C27A, A30C
# DNA 1: CAATCTGAATTCCGGTCTCCC
# DNA 2: TGGTGGCTACGACGGGATT
# B27: CCUUAGU (DNA:RNA)
# RNA: B1 RNA with G25C, G27U, G28U, G29A
# DNA 1: CAATCTGAATTCCGGTCTCCC
# DNA 2: TGGTGGCTACGACGGGATT
# B28: AAUCGUC (DNA:RNA)
# RNA: B6 RNA with C27U, U28C, C29G, A30U, A31C
# DNA 1: CAATCTGAATTCCGGTCTCCC
# DNA 2: TGGTGGCTACGACGGGATT
# B29: CCACGGU (DNA:RNA)
# RNA: B1 RNA with G25C, G27A, G28C
# DNA 1: CAATCTGAATTCCGGTCTCCC
# DNA 2: TGGTGGCTACGACGGGATT
# B30: UAGGCUU (DNA:RNA)
# RNA: B1 RNA with G25U, C26A, G29C, G30U
# DNA 1: CAATCTGAATTCCGGTCTCCC
# DNA 2: TGGTGGCTACGACGGGATT
# B31: CGGAGCA (DNA:RNA)
# RNA: B1 RNA with G25C, C26G, G28A, G30C, U31A
# DNA 1: CAATCTGAATTCCGGTCTCCC
# DNA 2: TGGTGGCTACGACGGGATT
# Biological target: T1, RBFOX1 RRM RbFoxmut (Fox-RRM*)
# Assay: EMSA; HiTS-Eq, 1 nM pool, 10 min; buffer printed only for the single-RNA assays: 10 mM Tris pH 7.5, 150 mM NaCl, 3.4 mM EDTA, 0.001% NP-40, 30 C
# Conditions: tags: His6 N-terminal (pET28a); label: 5' 32P
# In short: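 These values rest on relative association constants, computed from read-count changes of each RNA species versus the control reaction and normalised to the cognate motif. Reads came from free RNA recovered by 8% native PAGE after purified RbFox RRM (wild type or mutant) at increasing concentrations was equilibrated for 10 min in 50 µL with 1 nM of a 5′-radiolabelled pool with 7 randomized nucleotides and DNA-annealed flanks.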
row,Binder,binding signal
1,B1,0.129 KA relative to UGCAUGU
2,B2,0.225 KA relative to UGCAUGU
3,B3,0.082 KA relative to UGCAUGU
4,B4,0.15 KA relative to UGCAUGU
5,B5,0.117 KA relative to UGCAUGU
6,B6,0.0649 KA relative to UGCAUGU
7,B7,0.113 KA relative to UGCAUGU
8,B8,0.0798 KA relative to UGCAUGU
9,B9,0.0958 KA relative to UGCAUGU
10,B10,0.0442 KA relative to UGCAUGU
11,B11,0.101 KA relative to UGCAUGU
12,B12,0.524 KA relative to UGCAUGU
13,B13,0.15 KA relative to UGCAUGU
14,B14,0.0797 KA relative to UGCAUGU
15,B15,0.0975 KA relative to UGCAUGU
16,B16,0.0653 KA relative to UGCAUGU

row,Binder,binding signal
1,B17,0.0638 KA relative to UGCAUGU
2,B18,0.0616 KA relative to UGCAUGU
3,B19,0.083 KA relative to UGCAUGU
4,B20,0.119 KA relative to UGCAUGU
5,B21,0.0587 KA relative to UGCAUGU
6,B22,0.102 KA relative to UGCAUGU
7,B23,1.27 KA relative to UGCAUGU
8,B24,0.063 KA relative to UGCAUGU
9,B25,0.115 KA relative to UGCAUGU
10,B26,0.147 KA relative to UGCAUGU
11,B27,0.124 KA relative to UGCAUGU
12,B28,0.0729 KA relative to UGCAUGU
13,B29,0.115 KA relative to UGCAUGU
14,B30,0.0783 KA relative to UGCAUGU
15,B31,0.12 KA relative to UGCAUGU

# From paper PMC9911399, “Two distinct binding modes provide the RNA-binding protein RbFox with extraordinary sequence specificity”
